From PubChem BioAssay AID686978 (National Center for Advancing Translational Sciences (NCATS), 2013)
Screen size: about 420,000 compounds; about 64,000 (15%) were called active. The shares of active, inactive and inconclusive entries below differ from those in the screen. Calls come from the whole dose curve; as a rule, active = well fitted inhibition curve with a large enough effect; inconclusive = small, poorly fitted or top-dose-only effect; inactive = flat fitted curve, though single readings scatter. Potencies of inconclusive entries are left out as doubtful fits.
% is set by controls: 0 for no effect and ±100 for the full control effect; potency is the fitted concentration of half-maximal effect; tags give direction and shape of the fitted curve.

Experiment: qHTS for Inhibitors of human tyrosyl-DNA phosphodiesterase 1 (TDP1): qHTS in cells in absence of CPT; note: nearly all actives have a fitted effect of over 55% in size
Details: DT40 Tdp1-/- hTDP1 cells, no CPT, ATP luminescence, 48 h; activity change, negative = growth inhibition: at 46.2 µM (top of the series) unless noted
In short: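 Compound effects on proliferation are scored in DT40 Tdp1-/-;hTDP1 cells in the absence of CPT. ATP levels (CellTiter-Glo luminescence) are recorded after a ≥48 hr, 37 °C incubation.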
For `COc1ccc(NCc2nnc(SCC(=O)NCc3ccco3)n2-c2ccccc2OC)cc1`, the “activity change, negative = growth inhibition” value was inactive: -18.1%. For `NC/C=C\C(=O)O`, the Potency was “inactive”. In the case of `COc1cccc(CNC(=O)CCn2c(=O)c3cccn3c3ccc(F)cc32)c1OC`, the Potency is reported as active: 23.1 µM. In the case of `COc1ccc(NC(=S)Nc2cc(C)[nH]n2)cc1Cl`, the Potency is reported as active: 18.4 µM. In the case of `CC(OC(=O)C1CCC1)C(=O)Nc1cc(Cl)cc(Cl)c1` (stereo unspecified), the “activity change, negative = growth inhibition” value is reported as inactive: -18.7%. For `C(=C\c1ccnc2ccccc12)/c1cccs1`, the Potency was inconclusive [inhibitor, single point]. In the case of `C[C@@H]1CN([C@H](C)CO)C(=O)c2cc(Br)cnc2O[C@@H]1CN(C)C(=O)Nc1ccccc1`, the “activity change, negative = growth inhibition” value is reported as inactive: -12%. In the case of `COc1ccc(CCNC(=O)CCc2c(C)nc3c(c(C)nn3-c3ccc(C)c(C)c3)c2C)c(OC)c1OC`, the activity change, negative = growth inhibition is reported as inconclusive: -32.1% [inhibitor]. For `CCc1nc2ccc(C(=O)NCCN3CCNC3=O)cn2c1N(C)Cc1ccc(OC)cc1`, the Potency was inconclusive [inhibitor, single point]. With `Cc1nc2ccccn2c1-c1csc(Nc2ccc(C(=O)O)cc2)n1` the Potency was active: 3.66 µM. With `CC(C)CCOc1ccc(C2=NNC(=O)CC2)cc1` the “activity change, negative = growth inhibition” value was inactive: -3.05%. For `COc1ccc(N(CC(=O)NCCSc2ccccn2)S(C)(=O)=O)cc1`, the “activity change, negative = growth inhibition” value was inactive: 1.14%. For `CCN(CC)CCNC(=O)C1c2ccccc2C(=O)N(C)C1c1cn(C)c2ccccc12` (stereo unspecified), the “activity change, negative = growth inhibition” value was inactive: -1.64%. In the case of `CCOC(=O)C1CCC(CN(Cc2ccccc2)S(=O)(=O)c2ccc(Cl)cc2)CC1` (stereo unspecified), the Potency is reported as inconclusive [inhibitor, single point]. For `N#Cc1ccc(OCC(=O)N2CCN(S(=O)(=O)c3ccc(Cl)s3)CC2)cc1`, the Potency was inconclusive [inhibitor, single point]. In the case of `COc1ccnc(N=CNOCc2ccc(F)cc2Cl)c1C#N`, the Potency is reported as inconclusive [inhibitor, partial curve, poor fit]. For `CCOc1ccc(-n2c(-c3ccc(C)cc3)nc3c(cnn3-c3ccccc3)c2=O)cc1`, the Potency was inconclusive [inhibitor, single point]. With `O=C(Nc1ccc(-n2nncc2-c2ccccc2)cc1)c1ccccc1` the “activity change, negative = growth inhibition” value was inactive: -25.2%. In the case of `CCN1C(=O)[C@H]2[C@@H](c3ccc(OC)cc3)N[C@]3(CCCN(Cc4ccccc4)C3=O)[C@H]2C1=O`, the Potency is reported as inconclusive [inhibitor, single point]. With `CCc1ccc2oc(C(=O)N3CCN(c4ccccc4OC)CC3)cc(=O)c2c1` the Potency was active: 9.2 µM. In the case of `COc1ccc(CCNC(=O)Cn2cc(C(=O)c3ccccc3)c(=O)c3ccc(C)nc32)cc1OC`, the Potency is reported as inconclusive [inhibitor, single point]. In the case of `O=C(OCc1cn([C@@H]2CN(C(=O)c3cccs3)[C@@H](c3ccc(Cl)cc3)C[C@H]2O)nn1)c1ccccc1`, the Potency is reported as inconclusive [inhibitor, partial curve, poor fit]. For `CC(C)C[C@H](NC(=O)c1nc[nH]c1C(=O)N[C@@H](CCCCNC(=O)OC(C)(C)C)C(=O)OC(C)(C)C)C(=O)OCc1ccccc1`, the Potency was inconclusive [inhibitor, single point]. With `CCOC(=O)c1c(S(=O)(=O)N2CCC(C(=O)Nc3ccccc3OC)CC2)c(C)n(CC)c1C` the “activity change, negative = growth inhibition” value was inactive: 15.8%. For `COC(=O)[C@]1(C)N[C@H](CN(C)C(=O)Nc2ccccc2)[C@@H]2C(=O)N(Cc3ccccc3)C(=O)[C@@H]21`, the “activity change, negative = growth inhibition” value was inactive: -1.16%. In the case of `COC/C=C/C1=CC2=CC(=O)C(C)(OC(=O)c3cnc4ccccc4n3)C(=O)C2=CN1CCOC` (stereo unspecified), the Potency is reported as inconclusive [inhibitor, single point]. With `Cc1ccc(C(=O)N/C(=C/c2ccccc2)C(=O)NCc2ccncc2)cc1` the “activity change, negative = growth inhibition” value was inactive: -3.74%. In the case of `CN(c1ccc(C(=O)NCCC2=CCCCC2)cc1)S(C)(=O)=O`, the Potency is reported as inconclusive [inhibitor, partial curve, poor fit]. With `CCOc1ccc(-c2cc(CCCC(=O)NCc3ccco3)no2)cc1` the Potency was active: 20.6 µM. For `CCn1cc(C(=O)NCCc2ccc(C)cc2)c(=O)c2cc(S(=O)(=O)N(C)C)ccc21`, the Potency was “inactive”. In the case of `O=C1CC(NS(=O)(=O)c2cccs2)CN1c1cccc(F)c1` (stereo unspecified), the Potency is reported as inconclusive [inhibitor, partial curve]. For `c1ccc(CNc2ncnc3scc(-c4cccs4)c23)nc1`, the Potency was active: 9.2 µM. In the case of `CCC(=O)c1ccc(N2CCN(C(=O)c3cc([N+](=O)[O-])ccc3F)CC2)c(F)c1`, the Potency is reported as active: 16.4 µM. With `O=C(c1ccc(F)cc1)N1CCN2C(=O)c3ccccc3C12c1ccc(Cl)cc1` (stereo unspecified) the Potency was inconclusive [inhibitor, single point]. With `Cc1cc(C)nc(SCC(=O)Nc2ncc(Cc3cccc(Cl)c3Cl)s2)n1` the Potency was active: 18.4 µM. With `Cc1cc(Cl)ccc1OCC(=O)Nc1ccc2oc(=O)ccc2c1` the Potency was inconclusive [inhibitor, partial curve]. For `Cc1ccc(Nc2ncc3c(n2)CC(c2ccco2)CC3=O)c(C)c1` (stereo unspecified), the Potency was inconclusive [inhibitor, single point]. With `COc1ccc(OC)c(/C=N/N2CCN(c3ccc(Cl)cc3)CC2)c1` the Potency was inconclusive [inhibitor, single point]. With `CCOc1ccc(OCC)c(Nc2nc3ccccc3c3nnc(C)n23)c1` the Potency was inconclusive [inhibitor, single point]. For `CN(C(=O)c1ccc(Br)o1)C1CCS(=O)(=O)C1` (stereo unspecified), the “activity change, negative = growth inhibition” value was inactive: -27.3%. For `O=C(NCC(c1ccco1)N1CCCC1)c1cccc(S(=O)(=O)N2CCCCC2)c1` (stereo unspecified), the Potency was inconclusive [inhibitor, single point]. For `Cc1ccc(OCC(=O)NC2CC(C)(C)NC(C)(C)C2)c(C)c1`, the “activity change, negative = growth inhibition” value was inactive: 0.0348%. In the case of `CC(=O)C1=C(c2ccc(Br)cc2)C(=O)c2ccccc2C1=O`, the Potency is reported as active: 1.46 µM. For `CCCC(=O)Nc1cccc(S(=O)(=O)N(C)c2ccccc2)c1`, the Potency was inconclusive [inhibitor, single point]. For `CC1(C(=O)N2Cc3ccccc3C2)CCN1C(=O)C1(c2ccc(Cl)cc2)CC1` (stereo unspecified), the Potency was inconclusive [inhibitor, single point]. In the case of `COc1cccc(NC(=O)CN(C)C(=O)c2cccc(S(=O)(=O)Nc3ccc(C)cc3)c2)c1`, the “activity change, negative = growth inhibition” value is reported as inactive: -2.56%. For `COc1cc(CN2CCC(C(=O)N3CCN(c4ccccc4F)CC3)CC2)cc(OC)c1OC`, the Potency was inconclusive [inhibitor, single point]. For `O=C(CSc1nnc(-c2ccc(O)cc2)n1Cc1ccco1)N1CCc2ccccc2C1`, the Potency was inconclusive [inhibitor, single point]. In the case of `COc1ccc(C(=O)Nc2c(N)nc(SCC(=O)Nc3ccc(NC(C)=O)cc3)[nH]c2=O)cc1OC`, the “activity change, negative = growth inhibition” value is reported as inactive: 7.03%. For `COCCn1c(=O)c(C)nc2cnc(Nc3ccccc3)nc21`, the “activity change, negative = growth inhibition” value was inactive: -0.119%. With `CCN(c1ccccc1)S(=O)(=O)c1ccc(OC)c(NC(=O)c2cc(Cl)ccn2)c1` the Potency was inconclusive [inhibitor, single point]. For `CC(=O)c1sc(-c2ccc(Cl)cc2)cc1N`, the Potency was inconclusive [inhibitor, full curve, poor fit]. With `Oc1ccccc1C1Nc2cccc3cccc(c23)N1` the Potency was inconclusive [inhibitor, partial curve, poor fit]. For `Cc1cc2c(cc1S(=O)(=O)N(C)C1CCCCC1)OCC(=O)N2`, the Potency was active: 23.1 µM. In the case of `Cc1ccc(-n2ncc(C(=O)NCCN3CCN(C)CC3)c2C2CCN(C(=O)OC(C)(C)C)CC2)c(C)c1`, the Potency is reported as inconclusive [inhibitor, single point]. For `O=C(NCc1ccco1)c1cccc(S(=O)(=O)N2CCc3ccccc32)c1`, the Potency was inconclusive [inhibitor, single point]. For `O=C(COC(=O)c1ccccc1C(=O)c1ccccc1)NCc1ccc(F)cc1`, the Potency was inconclusive [inhibitor, single point]. With `COc1cccc(C(=O)NC(C)C(c2cccs2)N2CCN(C)CC2)c1` (stereo unspecified) the “activity change, negative = growth inhibition” value was inactive: -11.3%. With `Cc1ccc(S(=O)(=O)c2nc(-c3cccs3)oc2N2CCCCC2)cc1` the Potency was active: 23.1 µM. For `COc1cccc(NC(=O)CCC2CCN(C(=O)C3CC=CCC3)CC2)c1` (stereo unspecified), the Potency was inconclusive [inhibitor, single point]. For `COc1ccccc1N1CCN(C2CCCN(Cc3cccc(O)c3)C2)CC1` (stereo unspecified), the “activity change, negative = growth inhibition” value was inactive: 0.399%. For `CCOC(=O)[C@]12CCCC=C1N(Cc1ccco1)C(=O)[C@H](CC(=O)NCCC(C)C)C2`, the Potency was active: 16.4 µM. In the case of `COC(=O)c1ccc(/C=C/C(=O)OCC(=O)Nc2sccc2C(N)=O)cc1`, the Potency is reported as inconclusive [inhibitor, single point]. In the case of `CCC(C(=O)NCCc1c[nH]c2ccc(C)cc12)c1ccccc1` (stereo unspecified), the Potency is reported as inconclusive [inhibitor, partial curve]. For `COc1ccc(C(=O)O/N=C(\N)c2ccncc2)cc1OC`, the Potency was inconclusive [inhibitor, single point]. In the case of `Cc1cc(OCC(=O)N2CCC(O)CC2)c2c(C)cc(=O)oc2c1`, the “activity change, negative = growth inhibition” value is reported as inactive: 12.1%. In the case of `COC(=O)c1ccccc1SCC(=O)Nc1ccc(N2CCOCC2)cc1`, the “activity change, negative = growth inhibition” value is reported as inactive: -2.88%. With `COc1ccccc1NC(=O)C(=O)NCCC1CCCCN1S(=O)(=O)c1ccc(F)cc1` (stereo unspecified) the Potency was active: 18.4 µM. For `Cc1cccc(NC(=O)C(=O)NNC(=O)c2ccc(C(C)(C)C)cc2)c1`, the Potency was inconclusive [inhibitor, single point]. In the case of `O=C(NCc1ccco1)c1cc(-c2ccccc2)nc2ccccc12`, the Potency is reported as inconclusive [inhibitor, single point]. For `CCCCCc1ccc2cc(C#N)ccc2n1`, the “activity change, negative = growth inhibition” value was inactive: -1.72%.
